Values joined by “and” are separate entries in the source; they are usually repeats but may differ in a detail not shown here. Equal values may be shown once. Among all 280,000 compounds or so, about 1,100 (0.39%) were called active. The inconclusive results got no clear call from the source; some entries with a clear call stand among them for comparison. Calls follow the shape of the dose curve; as a rule, active = well fitted inhibition curve with a large enough effect; inconclusive = small, poorly fitted or top-dose-only effect, or effect the other way; inactive = flat fitted curve, though single readings scatter. Where the call is inconclusive, the potency comes from a doubtful curve fit.
The compounds below were run against Microtubule-associated protein tau (Homo sapiens) (UniProt P10636) (assay: qHTS for Inhibitors of Tau Fibril Formation, Fluorescence Polarization). Conditions: K18 P301L tau heparin fibrillization, Alexa594 FP, 6 h; series mostly up to 57.7 µM; activity, negative = inhibition: at the top concentration.
Sequence of UniProt P10636 (P10636 whole entry, looked up): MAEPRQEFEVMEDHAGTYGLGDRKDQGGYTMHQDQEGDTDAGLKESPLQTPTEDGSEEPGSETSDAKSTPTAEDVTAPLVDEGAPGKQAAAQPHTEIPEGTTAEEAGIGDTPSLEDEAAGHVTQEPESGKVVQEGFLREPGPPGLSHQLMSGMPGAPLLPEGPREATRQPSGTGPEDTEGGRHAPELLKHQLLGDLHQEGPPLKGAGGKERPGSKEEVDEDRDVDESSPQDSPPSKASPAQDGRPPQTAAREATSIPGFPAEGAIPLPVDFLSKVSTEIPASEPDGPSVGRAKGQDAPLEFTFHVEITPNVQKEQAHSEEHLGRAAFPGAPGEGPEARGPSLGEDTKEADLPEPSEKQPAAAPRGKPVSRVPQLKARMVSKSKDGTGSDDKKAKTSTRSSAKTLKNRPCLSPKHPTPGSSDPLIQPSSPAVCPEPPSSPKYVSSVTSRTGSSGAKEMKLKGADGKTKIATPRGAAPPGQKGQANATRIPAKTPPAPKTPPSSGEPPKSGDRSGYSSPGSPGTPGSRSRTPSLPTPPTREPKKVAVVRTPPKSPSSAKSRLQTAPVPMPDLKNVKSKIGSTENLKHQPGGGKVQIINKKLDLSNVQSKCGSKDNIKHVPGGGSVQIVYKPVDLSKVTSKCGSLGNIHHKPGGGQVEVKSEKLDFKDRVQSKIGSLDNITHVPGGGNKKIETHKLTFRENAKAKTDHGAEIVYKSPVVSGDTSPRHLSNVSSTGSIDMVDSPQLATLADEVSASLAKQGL
Summary of the method: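 Steps: dispense K18 P301L tau (15 uM plus 0.24 uM Alexa 594 tracer, final) in pH 7 sodium acetate; add compound; add heparin (20 uM final); incubate 6 hr, 37 C; add ThT (30 uM final); after 1 hr ambient, read FP.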
For `Cc1cccc(N2CCN(S(=O)(=O)c3cc(C(=O)Nc4ccc(Oc5ccccc5)cc4)ccc3F)CC2C)c1` (stereo not drawn), the Potency was inconclusive: 14.1 µM [inhibitor, partial curve]. With `COc1ccc(C(=O)NCCn2cc(SCC(=O)Nc3ccc4c(c3)OCCO4)c3ccccc32)cc1` the Potency was inconclusive: 39.8 µM [inhibitor, single point]. For `NCCSSCCN`, the Potency was inconclusive: 14.1 µM [inhibitor, partial curve] and inconclusive: 7.94 µM [inhibitor, partial curve] and inconclusive: 12.6 µM [inhibitor, partial curve]. `OC(CNCC1CCCO1)Cn1c2ccc(Br)cc2c2cc(Br)ccc21` (stereo not drawn) was tested, and the Potency was inconclusive: 20 µM [inhibitor, partial curve, poor fit]. In the case of `CCCCN(C)CCNC(=O)c1nn(-c2ccc(OC)c(Cl)c2)c(=O)c2c1c1ccccc1n2C`, the Potency is reported as inconclusive: 14.1 µM [inhibitor, partial curve, poor fit]. For `Cc1nn(-c2ccccc2)c2sc(C(=O)Nc3ccc(Cl)cc3Cl)cc12`, the Potency was inconclusive: 5.62 µM [inhibitor, full curve, poor fit]. In the case of `CCO[C@@H]1OC(C(=O)NCc2ccccc2)=C[C@H](C2CCCCC2)[C@H]1CCCO`, the Potency is reported as inconclusive: 1.78 µM [activator, single point]. `CCOC(=O)CC(=O)CSc1ncc(C(=O)OCC)c(N)n1` was tested, and the “activity, negative = inhibition” value was inactive: 6.15%. `COc1ccc(C(C)=O)cc1COC(=O)CNC(=O)c1ccc(Cl)cc1` was tested, and the “activity, negative = inhibition” value was inactive: 4.68%. With `O=C(N/N=C\c1c(O)ccc2ccccc12)c1ccc(S(=O)(=O)N2CCCCC2)cc1` the Potency was inconclusive: 1.26 µM [activator, full curve, poor fit]. For `CCn1nc(C)c([N+](=O)[O-])c1C(=O)NNC(=O)c1ccc(Cl)cc1`, the Potency was inconclusive: 8.91 µM [inhibitor, single point]. With `COc1ccc(Cl)cc1NC(=O)CSc1nc(=O)n(Cc2ccco2)c2c1CCC2` the “activity, negative = inhibition” value was inactive: -0.201%. `C=C(Nc1ccc(OC)cc1)C(=O)OC` was tested, and the Potency was inconclusive: 44.7 µM [inhibitor, single point]. For `COc1ccc(C(=O)Nc2ccc(S(=O)(=O)Nc3cc(C)nc(C)n3)cc2)cc1OC`, the “activity, negative = inhibition” value was inactive: 3.22%. For `COc1cc(/C=N/N=C(/N)c2nonc2N)cc(Br)c1OCc1cccc(C)c1`, the Potency was active: 28.2 µM. For `Cc1ccc(N2C(=O)CS/C2=C(\C(Cl)=C(Cl)Cl)[N+](=O)[O-])cc1`, the Potency was inconclusive: 39.8 µM [inhibitor, single point]. In the case of `Oc1ccccc1-c1nc2cnccn2c1Nc1ccc2c(c1)OCCO2`, the Potency is reported as inconclusive: 20 µM [activator, partial curve, poor fit]. `[O-]/C(=C(\C(=S)Nc1cccc2ccccc12)[n+]1ccccc1)c1ccc2c(c1)OCCO2` was tested, and the Potency was inconclusive: 14.1 µM [inhibitor, partial curve]. `CC(C)NCC(O)c1ccc(O)c(O)c1` (stereo not drawn) was tested, and the Potency was inconclusive: 7.94 µM [inhibitor, single point]. For `Cc1ccc(NC(=O)NC2=NN(c3ccccc3)C(=O)/C2=C2/CCCN2C)cc1`, the Potency was inconclusive: 39.8 µM [inhibitor, single point]. With `Cc1cc(Nc2cccc(C(F)(F)F)c2)nc2ccc(NC(=O)Cc3ccc(Cl)cc3)cc12` the Potency was inconclusive: 39.8 µM [inhibitor, single point]. In the case of `CCOc1ccc(Nc2nc3c(c(=O)[nH]2)CCCC3)cc1`, the Potency is reported as inconclusive: 2.82 µM [activator, partial curve, poor fit]. For `CCOC(=O)N1CCN(S(=O)(=O)c2ccc([N+](=O)[O-])cc2)CC1`, the “activity, negative = inhibition” value was inactive: 5.85%. `Cc1ccc(C)n1-c1ccc(N2CCOCC2)cc1` was tested, and the “activity, negative = inhibition” value was inactive: -14.9%. With `Cc1ccc(NC(=O)Nc2nnc(SCC(=O)N3CCCCC3)s2)cc1` the Potency was inconclusive: 15.8 µM [inhibitor, partial curve]. For `Cc1ccccc1OCCCC(=O)NCc1ccco1`, the “activity, negative = inhibition” value was inactive: 7.82%. With `O=C(CN1C(=O)c2ccccc2C1=O)Nc1nnc(C2CCCO2)s1` (stereo not drawn) the “activity, negative = inhibition” value was inactive: -1.5%. In the case of `O=C1CC(SC(=Nc2ccccc2)Nc2ccccc2)C(=O)N1c1cccc(Cl)c1` (stereo not drawn), the Potency is reported as inconclusive: 22.4 µM [inhibitor, partial curve]. `COc1ccc(OC)c(NS(=O)(=O)c2ccc(NC(=O)c3ccc(NS(C)(=O)=O)cc3)cc2)c1` was tested, and the Potency was inconclusive: 39.8 µM [inhibitor, single point]. For `O=C(CSc1nc2c(sc3ccccc32)c(=O)n1CCCN1CCCC1)NCc1ccco1`, the Potency was inconclusive: 22.4 µM [inhibitor, single point]. For `O=C(CCCn1cnc([N+](=O)[O-])n1)Nc1ccc(F)c(Cl)c1`, the Potency was inconclusive: 3.16 µM [inhibitor, single point]. In the case of `Cc1ccc(-c2nnn(CC(=O)Nc3ccc(S(=O)(=O)N4CCC(C)CC4)cc3)n2)cc1`, the Potency is reported as inconclusive: 5.62 µM [inhibitor, full curve]. `CCCCOc1cccc(C(=O)Nc2sc3c(c2C(=O)OCC)CCCC3)c1` was tested, and the Potency was inconclusive: 2.51 µM [inhibitor, partial curve, poor fit]. For `COc1ccc(N/C(=C(/C(Cl)=C(Cl)Cl)[N+](=O)[O-])n2nnc3ccccc32)cc1OC`, the Potency was inconclusive: 12.6 µM [inhibitor, partial curve]. In the case of `CCSc1nc(N)c(C#N)c(-c2ccccc2Cl)c1C#N`, the Potency is reported as inconclusive: 28.2 µM [inhibitor, single point]. With `COc1ccc(OCC(=O)Nc2ccc(-c3nc4cc(Cl)ccc4o3)cc2)cc1` the Potency was inconclusive: 44.7 µM [inhibitor, single point]. With `CC(C)C[C@H](NC(=O)c1[nH]cnc1C(=O)Nc1ccccc1)C(=O)OC(C)(C)C` the Potency was active: 22.4 µM. In the case of `CCOc1ccc(CNC(=O)c2ccc3c(c2)c(C)c(C)n3C)cc1`, the Potency is reported as inconclusive: 11.2 µM [activator, single point]. `Cc1cc(NC(=O)CCSc2ccccc2)ccc1Br` was tested, and the Potency was inconclusive: 20 µM [inhibitor, single point]. For `c1csc(-c2cn3ccc4ccccc4c3n2)c1`, the “activity, negative = inhibition” value was inactive: -48.5%. With `N#CC1=C(N)NC(SCC(=O)c2ccc(Br)cc2)=C(C#N)C12CCCCC2` the Potency was inconclusive: 39.8 µM [inhibitor, single point]. `COCC1=Cc2cc3c(cc2C(C(C(=O)OC)C(=O)OC)N1C(=O)OC)OCO3` (stereo not drawn) was tested, and the Potency was inconclusive: 2 µM [inhibitor, partial curve]. In the case of `CC(C)Cn1nc(NC(=O)c2cccc(Cl)c2)c2cc3ccccc3nc21`, the “activity, negative = inhibition” value is reported as inactive: -0.597%. For `COc1cc(OC)cc(C(=O)N[C@H](C(=O)OCC(=O)NC(C)c2ccccc2)C(C)C)c1` (stereo partly drawn), the Potency was inconclusive: 3.55 µM [inhibitor, single point]. In the case of `CCc1cc[n+](CC(=O)Nc2ccc(Cl)cc2Cl)cc1`, the “activity, negative = inhibition” value is reported as inactive: 6.03%. For `COc1ccc(NC(=S)N(CCCN2CCOCC2)Cc2cn(C)c3ccccc23)cc1OC`, the Potency was inconclusive: 5.01 µM [activator, partial curve, poor fit]. `O=C(Nc1cccc(F)c1)c1ccc2oc(=O)n(Cc3ccccc3)c2c1` was tested, and the Potency was inconclusive: 17.8 µM [inhibitor, partial curve, poor fit]. For `Cc1nc(-c2ccc3c(c2)OCCCO3)cs1`, the “activity, negative = inhibition” value was inactive: 1.65%. With `COC(=O)c1ccc(C)c(NC(=O)CCSc2ccc(C)cc2)c1` the Potency was inconclusive: 17.8 µM [inhibitor, single point]. `CCn1c(Cc2ccc(OC)cc2)nnc1SCC(=O)NC1CCCCC1` was tested, and the “activity, negative = inhibition” value was inactive: 6.14%. `COc1cccc(F)c1C(=O)NC(=O)Nc1ccc2nc(C)oc2c1` was tested, and the Potency was inconclusive: 31.6 µM [inhibitor, single point]. `COc1ccc(-c2nc(Cn3c(SCc4ccc(C)cc4)nc4ccncc43)c(C)o2)cc1OC` was tested, and the Potency was inconclusive: 7.94 µM [activator, single point]. In the case of `Cc1ccc(-c2csc(-c3c(N)c(C(=O)c4ccc5c(c4)OCO5)n4ccccc34)n2)cc1C`, the Potency is reported as inconclusive: 2.51 µM [activator, full curve]. `CN=c1scc(-c2ccc(F)cc2)n1/N=C/c1ccc(O)c(O)c1` was tested, and the “activity, negative = inhibition” value was inactive: -0.502%. In the case of `O=C(O)c1ccc2c3c(cccc13)C(=O)N(OS(=O)(=O)c1ccccc1)C2=O`, the Potency is reported as inconclusive: 20 µM [inhibitor, single point]. With `COc1cccc(/C=N/Nc2ncnc3scc(-c4ccccc4)c23)c1OC` the Potency was inconclusive: 10 µM [activator, partial curve]. For `Cc1ccc(S(=O)(=O)N2CCN(S(=O)(=O)c3ccccc3)C2c2ccc(N(C)C)cc2)cc1` (stereo not drawn), the Potency was inconclusive: 20 µM [activator, partial curve]. In the case of `COc1ccc(NC(=O)CC2Oc3ccc(C)cc3NC2=O)cc1Cl` (stereo not drawn), the Potency is reported as inconclusive: 39.8 µM [inhibitor, single point]. With `COc1ccc(NC(=O)c2c(NCc3ccc(C)o3)sc3c2CCCCC3)c(OC)c1` the Potency was inconclusive: 44.7 µM [inhibitor, single point]. `CCn1c(=O)c2cc(C(=O)Nc3cccc(C(F)(F)F)c3)sc2c2ccccc21` was tested, and the Potency was inconclusive: 7.08 µM [inhibitor, partial curve, poor fit]. With `COc1cccc(/C=N/NC(=S)Nc2cccc(C(=O)O)c2)c1O` the Potency was inconclusive: 0.0224 µM [activator, full curve, poor fit]. With `COc1ccc(CNC(=O)COC(=O)CCc2c[nH]c3ccccc23)cc1` the Potency was inconclusive: 8.91 µM [activator, single point]. With `CCC(Sc1nc2nccnc2c(=O)n1Cc1ccccc1Cl)C(=O)NC1CCCCC1` (stereo not drawn) the Potency was inconclusive: 14.1 µM [inhibitor, partial curve].
% is scaled to controls: 0 for no effect and ±100 for the full control effect; potency is read from the fitted curve at half-maximal effect; tags tell the direction and shape of the fitted curve.
Also: nearly all actives have a fitted effect of over 55% in size.
